# Test results as given in the supplement of paper PMC3724861.
# This is one part of the list.
# Tested on: T1, Caupolican (Caup) homeodomain DNA-binding domain
# T1 sequence: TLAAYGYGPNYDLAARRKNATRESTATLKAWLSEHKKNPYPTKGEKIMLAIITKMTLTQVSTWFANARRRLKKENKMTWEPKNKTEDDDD
# Test: PBM E-score (8-mer, recovered from the published 9-mer minima) (E-score (dimensionless, -0.5 to 0.5)); Drosophila protein; higher = stronger relative binding preference, active = 0.31 or more
# In short: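 An enrichment score, with higher meaning stronger, expresses relative binding preference for each short DNA word. The protein used was Caup's homeodomain DNA-binding domain (residues 214-303), produced by in vitro transcription and translation and tested at 100 nM on custom-designed protein binding microarrays. The 8-mer values were recovered from published 9-mer scores, each equal to the lower of its two constituent 8-mer scores.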
row,Sequence,PBM E-score
1,AAGTATGA,inactive: 0.111
2,CGGGAACC,inactive: -0.163
3,AAGTGTTC,inactive: 0.154
4,GTAGTCAA,inactive: 0.136
5,CCGAACAC,inactive: 0.119
6,GCTGAACA,inactive: 0.182
7,ATACTGAT,inactive: 0.189
8,CCGTAGTA,inactive: 0.0724
9,GGCTTCAA,inactive: -0.0907
10,AGGTTATA,inactive: 0.0929
11,ATAAAGTC,inactive: 0.0274
12,CCTCGAAG,inactive: -0.0776
13,CTAACCAA,inactive: 0.0913
14,CCTGACCC,inactive: -0.182
15,TACGGTAA,inactive: 0.116
16,CAGCGCTA,inactive: -0.0147
17,GGGAGTGA,inactive: -0.0488
18,AGAAGGCT,inactive: -0.215
19,AACCCGAT,≥ 0.0241
20,CAGGGTAC,inactive: 0.0986
21,CAGCCGGC,inactive: -0.299
22,GGCCCTAC,inactive: -0.163
23,GCGCGCGC,≥ -0.06
24,GACCACAC,inactive: -0.0391
25,GACCCCTC,inactive: -0.227

row,Sequence,PBM E-score
1,GATTGGTA,inactive: 0.126
2,AGGCAACG,inactive: -0.109
3,CCTGAAAG,inactive: -0.109
4,ACCCGGCC,inactive: -0.322
5,AAAGAGTA,inactive: 0.0035
6,AGCTTTGA,≥ 0.00033
7,CGGAAGTC,inactive: -0.141
8,CCTTCTCA,inactive: -0.0702
9,CTTTGTGA,inactive: 0.0514
10,GACAGCCA,inactive: -0.0268
11,TCACAGAA,inactive: -0.0106
12,CTTGAACC,inactive: 0.00592
13,AATATATT,inactive: 0.253
14,CACTTACG,inactive: 0.0708
15,AACGCCTG,inactive: -0.0371
16,ACATCACC,inactive: 0.186
17,ACAATATG,inactive: 0.296
18,CCATAAAA,inactive: 0.0948
19,CGCTGAAC,inactive: 0.0226
20,GCCAGTGA,inactive: -0.0845
21,CAACCCGC,inactive: -0.0395
22,CGCCCAAA,inactive: -0.0746
23,ATCCCTTC,inactive: -0.0331
24,ACTCTCCA,inactive: -0.0803
25,AACGACGC,inactive: 0.00675

row,Sequence,PBM E-score
1,CGATTCCC,inactive: -0.0812
2,AGTGAGTG,inactive: -0.0157
3,AGTCGCAC,inactive: -0.0631
4,AATTCTTG,inactive: 0.133
5,CTCGCGGC,inactive: -0.207
6,CTATACTC,inactive: -0.0213
7,AGCCGCCC,inactive: -0.249
8,GATGAATC,inactive: 0.106
9,ACTCTAAC,inactive: 0.0975
10,CCGAACAG,inactive: 0.0146
11,CGTGTAGC,inactive: 0.276
12,ACAAAATA,inactive: 0.189
13,CTTTCGGA,inactive: -0.077
14,AGGAACGC,inactive: -0.132
15,GAGCATTA,inactive: 0.0861
16,ATGGGGGG,inactive: -0.295
17,GTGGCAAA,inactive: -0.117
18,ACTACGGG,inactive: -0.0453
19,GCCTGAGC,inactive: -0.224
20,ACGTGCAC,inactive: 0.0623
21,ACTACACC,inactive: 0.281
22,CAATAGAA,inactive: 0.0418
23,AGGTCTCC,inactive: -0.181
24,ATCTCCTA,inactive: 0.0705
25,CTGAGCCC,inactive: -0.214

row,Sequence,PBM E-score
1,CTCTCTAA,inactive: -0.145
2,AAGTGCAG,inactive: -0.0499
3,CACCTAGG,inactive: -0.104
4,ACCCGATC,inactive: -0.0489
5,AAGAGCTC,inactive: -0.128
6,CGGGACGC,inactive: -0.263
7,CTAGCATC,inactive: -0.0492
8,ACAACTGT,≥ 0.224
9,AAGAGGGT,inactive: -0.0736
10,AGTCAATC,inactive: 0.098
11,AACTCGAC,inactive: 0.126
12,AGAGCGCA,inactive: -0.172
13,ATCCCAAT,≥ 0.0794
14,AATTTGGG,inactive: 0.0832
15,ACTGCGAG,inactive: -0.104
16,AGTGCCTA,inactive: -0.0569
17,ATTGCCTA,inactive: 0.0171
18,CGCGTCCC,inactive: -0.204
19,CTGCGTCA,inactive: -0.112
20,CACCGGCA,inactive: -0.138
21,AGTTCGTC,inactive: 0.0497
22,ATGTATAG,inactive: 0.276
23,CTTGCCTA,inactive: -0.0277
24,AGACTGAC,inactive: -0.0337
25,AGTAATTG,inactive: 0.142

row,Sequence,PBM E-score
1,GTTAAGGA,inactive: 0.00704
2,ACTGGGCT,inactive: -0.146
3,ACGAGATC,inactive: 0.029
4,GCACGCGC,inactive: -0.208
5,GATCTTAA,inactive: -0.00294
6,ACGCTCCG,inactive: -0.222
7,AGGCTTCG,inactive: -0.26
8,CTTCAAGA,inactive: 0.0664
9,GACACGTC,inactive: 0.225
10,GATCTTAC,inactive: 0.0573
11,GATATTAA,inactive: 0.0889
12,AGCGAGCG,inactive: -0.0955
13,AAGCTCAA,≥ -0.0103
14,CTCTCTTC,inactive: -0.194
15,GCTGAAGC,inactive: -0.14
16,AGGCGGAC,inactive: -0.156
17,AGTTACGA,inactive: 0.0856
18,CGACATGC,active: 0.386
19,AATACACG,active: 0.343
20,AGCCCTCC,inactive: -0.284
21,CGAGGCGA,inactive: -0.193
22,AACTTTAG,inactive: 0.0331
23,GACTTGGA,inactive: -0.0172
24,GATAACCC,inactive: -0.0449
25,ATTGTCCC,inactive: 0.0502

row,Sequence,PBM E-score
1,CGGTCTGC,inactive: -0.148
2,AATTCCAT,≥ 0.134
3,CGACGAAA,inactive: 0.0857
4,ACGATGAA,inactive: 0.0686
5,CAAATGGC,inactive: -0.0673
6,ACCCGGTG,inactive: -0.15
7,AACGCAGG,inactive: -0.121
8,CCGGTATC,inactive: -0.106
9,CGTTGGAC,inactive: -0.0179
10,ACGGTGGC,inactive: -0.158
11,AAAGAAGA,inactive: 0.0183
12,AAGGGCGG,inactive: -0.157
13,CGTACACG,active: 0.341
14,AGCACTCA,inactive: -0.103
15,CATCATCA,inactive: 0.116
16,GACATTTA,inactive: 0.177
17,CTATCGAA,inactive: 0.0587
18,ACGCGGAA,inactive: -0.0044
19,AACCACCG,inactive: -0.0561
20,GTACTTCA,inactive: 0.0742
21,ACCGTAGA,inactive: 0.0263
22,CAGCTGCG,inactive: -0.195
23,CATCTCAG,inactive: -0.0232
24,CATGCAAA,inactive: 0.181
25,ACGACACC,inactive: 0.178

row,Sequence,PBM E-score
1,CCAACCTA,inactive: -0.117
2,CACCATAG,inactive: 0.0543
3,CATAACAC,inactive: 0.254
4,AGATGCGG,inactive: -0.0788
5,GGCCAAAA,inactive: -0.131
6,CATCCTAA,inactive: 0.0223
7,AAATTCAA,inactive: 0.0754
8,CGAATCCC,inactive: -0.0917
9,ACACTACT,inactive: 0.163
10,ACACAAGC,inactive: 0.27
11,TGACTTAA,inactive: 0.101
12,TCTTGAAA,inactive: 0.0577
13,CTAGGCCA,inactive: -0.184
14,GGTCTTAA,inactive: -0.0262
15,ACTGCCAG,inactive: -0.125
16,AACACGTG,active: ≥ 0.351
17,ATACCCAT,inactive: 0.0992
18,CTTTGTAC,inactive: 0.229
19,CAGCCAGG,inactive: -0.171
20,CCTCTAGC,inactive: -0.113
21,ACGCCATA,≥ 0.0269
22,CCGCATGA,inactive: -0.165
23,AAGCCGCG,inactive: -0.185
24,CCCCGTCC,inactive: -0.288
25,GAGAATAC,inactive: 0.117

row,Sequence,PBM E-score
1,CATGACAA,inactive: 0.283
2,AGCAAGTA,≥ 0.176
3,ACCTGATG,inactive: -0.0468
4,AATGGACC,inactive: 0.00274
5,ATAGTATC,inactive: 0.141
6,GGCCGCTA,inactive: -0.26
7,ACAACCCG,inactive: 0.158
8,AAAACGCA,inactive: 0.00702
9,ACAGAATG,inactive: 0.13
10,ACATTTGC,inactive: 0.211
11,AAAGCCAG,inactive: -0.121
12,AATTCGGG,inactive: -0.0064
13,AGGGTTAA,inactive: -0.0478
14,CTGAGGAA,inactive: -0.138
15,GGTCTTGA,inactive: -0.00219
16,CTGCTATC,inactive: -0.0137
17,AATCAGTG,inactive: 0.0927
18,AGCAAAAC,inactive: 0.0891
19,AATGATGC,inactive: 0.0782
20,AGCGGATC,inactive: -0.0887
21,AGTTTGGG,inactive: -0.0668
22,ATTGACGG,inactive: -0.0874
23,CGGTAGAA,inactive: -0.134
24,CGGATTGA,inactive: 0.00308
25,AACGTGAC,inactive: 0.0599

row,Sequence,PBM E-score
1,GATCAGCC,inactive: -0.0818
2,TGCAATAA,inactive: 0.139
3,CCGTTAAG,inactive: -0.0392
4,AAATTATG,inactive: 0.119
5,CATGTCCC,active: 0.33
6,CGCATCTA,≥ 0.0538
7,CGACACCC,inactive: -0.022
8,ATTCTGTA,inactive: 0.149
9,ACCCGCTA,inactive: -0.0497
10,GAGGTACC,inactive: -0.137
11,AAGTGGTC,inactive: -0.0451
12,CTGCCATC,inactive: -0.0451
13,ACCTGGGA,≥ 0.00868
14,CAGTTTAA,inactive: 0.0934
15,CTGACATC,inactive: 0.28
16,ATTTCAGC,inactive: -0.057
17,ATACTTAA,inactive: 0.151
18,TAATTCGA,≥ 0.113
19,AATGCAAC,inactive: 0.113
20,CTTTTGGC,inactive: -0.151
21,TACGAGGA,inactive: 0.0493
22,AATACTTA,inactive: 0.0759
23,GTAAGCAA,inactive: 0.105
24,ACATTAGT,≥ 0.271
25,CCGCAGTA,inactive: -0.0913
